# Reference: PubChem BioAssay (NCI)
# Several values for one entry are separate records, joined by “and”; a condition that tells them apart may be missing. Identical values can stand only once.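 Dose response: 5 concentrations. Exposure: 48 h. Format: 96-well plates. Endpoint: linear interpolation; highest concentration if not reached. Abbreviation: GI50, concentration required for 50% inhibition of growth. TGI denotes the concentration required for complete inhibition of growth.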 Bridge positions count the residues as written; N and C are the ends. Square brackets hold non-standard residues; d marks the D form. Peptide text beside a SMILES is read from it. * marks the point of attachment. ξ: configuration not given here. ξNMe2Val = CC(C)C(C(=O)*)N(C)C; NMeV = CN[CH](C(=O)O)C(C)C; Aib = CC(C)(N)C(=O)O; NHBn = c1ccc(CN*)cc1; βAla = NCCC(=O)O
# Tested on: NCI-H322M lung
# Experiment: DTP human tumour cell line panel, 48 h
Compound,GI50,TGI [µM]
NS(=O)(=O)OC[C@H]1C[C@@H](Nc2ccnc3cc(-c4cccc(SC(F)(F)F)c4)nn23)[C@H](O)[C@@H]1O,0.0248 µM,0.0718
CC(=O)Oc1ccccc1,–,> 100
CCN1CCC(O)(c2ccc(Oc3ccc(Cl)cc3)cc2)C(C(=O)c2ccc(Oc3ccc(Cl)cc3)cc2)C1 (stereo not drawn),–,29.2
COc1cc(/C=C/c2cc(/C=C/c3ccc(O)c(OC)c3)n(C(=O)c3ccc(Cl)cc3)n2)ccc1O,3.03 µM,14.1
CSc1nc(-c2ccc(Cl)cc2)c(C#N)c(=O)n1C1OC(COC(C)=O)C(OC(C)=O)C(OC(C)=O)C1OC(C)=O (stereo not drawn),14 µM and > 100 µM,> 100
O=C(Nc1ccc(C(F)(F)F)cc1)NC(F)(F)F,–,> 100
Cc1ccc(O)c(C(c2cccc(C(c3cc(C)ccc3O)c3cc(C)ccc3O)c2)c2cc(C)ccc2O)c1,–,3.1
COc1ccc(S(=O)(=O)N2C(=O)CCC2C(=O)NC(N)=O)cc1 (stereo not drawn),–,> 100
CC(=O)c1nc2ccccc2n1C(C)C(=O)c1ccccc1 (stereo not drawn),–,> 100
COc1c/c(=C2\C=c3ccccc3=N2)[nH]/c1=C\c1[nH]c(C)cc1C,0.151 µM,22.6
CCOC1CN=C(Nc2cccc3ccccc23)S1 (stereo not drawn),–,> 10
CC(C)N(C(=O)C12C3C4C5(C#N)C3C1(C#N)C5C42C#N)C(C)C (stereo not drawn),–,> 100
Cc1ccc([N+](=O)[O-])cc1S(=O)(=O)Nc1ccc(C2=NN(S(=O)(=O)c3cc([N+](=O)[O-])ccc3C)C(c3ccccc3)C2)cc1 (stereo not drawn),–,> 100
O=C(COc1ccc(Cl)c(Cl)c1)Nc1ccc[n+](Cc2ccc(S(=O)(=O)F)c(Cl)c2)c1,–,> 100
CCOC(=O)c1nc2cc(C(F)(F)F)ccc2nc1Oc1ccc(C#N)cc1,–,> 100
COc1cc2c(c(OC)c1OC)-c1ccc(OC)c(=O)cc1C(NC(=O)COc1ccccc1)CC2 (stereo not drawn),–,1.93
C=CC(=O)Nc1ccc(NC(=O)C=C)c2c1C(=O)c1ccccc1C2=O,–,> 100
Oc1ccc(C=Nc2ccccc2O)cc1,–,> 100

Compound,GI50,TGI [µM]
COc1ccc2c3c1OC1C(F)C=CC4(O)C(C2)NCCC314 (stereo not drawn),–,18.5
C=C(C)C12CC3CC(/C(=N/O)C(C1)/C3=N\O)[C@@]2(C)O (stereo partly drawn),–,> 100
O=C(CSc1nc2c(n1Nc1ccccc1)-c1ccccc1SC2)Nc1nc(-c2ccc(Cl)cc2)cs1,34.4 µM,> 100
CCOC(=O)c1cc(C2CCN(c3ccccc3)C2=O)c(/C(O)=C/C(C)=O)[nH]1 (stereo not drawn),–,> 100
O=C(C=P(c1ccccc1)(c1ccccc1)c1ccccc1)c1ccc(-c2cccs2)cc1,–,17.2
Cc1c(C)n(CCCN2CCN(C)CC2)c2ccc(Oc3cccc(C(=O)N4CCN(CCc5ccc(F)cc5)CC4)c3)cc12,1.61 µM,2.99
COC(=O)[C@]12CC3C=CC1N(C3)C(CBr)c1c2n(S(=O)(=O)c2ccccc2)c2ccccc12 (stereo partly drawn),–,> 100
CC1(C)NC(=O)C(NC(=O)C(N)CC(=O)O)CCCCNC(=O)CCNC1=O (stereo not drawn) (H-DK[Aib][βAla]; lactam 2-C; configuration not given here),–,> 100
Clc1c(Cl)[n+](Cc2ccc3ccccc3c2)cn1Cc1ccc2ccccc2c1,1.87 µM,4.46
CC(=O)O[C@@H]1C[C@]2(C(=O)c3ccccc3)C(=O)C(=O)S[C@]12c1ccccc1,–,> 100
O=C(O)CCNCC(=O)O,–,> 100
CCOc1cc(C2CC(c3ccc(NS(=O)(=O)c4cc([N+](=O)[O-])ccc4C)cc3)=NN2S(=O)(=O)c2cc([N+](=O)[O-])ccc2C)ccc1O (stereo not drawn),–,> 100
O=C(CSCC(=O)N/N=C/c1ccc2c(c1)OCO2)N/N=C/c1ccc2c(c1)OCO2,–,> 100
CO/C=C/C=C(\C#N)C(=O)OC,–,> 100
CC1=NN(c2cccc(Cl)c2)C2(SCC(=O)N2c2nc3ccccc3s2)C1=CC=Cc1ccccc1 (stereo not drawn),–,> 100
C=CN(C(=O)N1CCN(c2cc3c(cc2F)c(=O)c(C(=O)O)cn3C2CC2)CC1)c1nc(-c2ccc(OC)cc2)cs1,2.52 µM,> 100
CC(C)C(NC(=O)C(C(C)C)N(C)C)C(=O)N(C)C(C(=O)N1CCCC1C(=O)N1CCCC1C(=O)NCc1ccccc1)C(C)C (stereo not drawn) (ξNMe2Val-V[NMeV]PP-NHBn; configuration not given here),–,> 100
